# Assay results: PubChem BioAssay AID2101 (National Center for Advancing Translational Sciences (NCATS), 2009)
# About 300 (0.091%) of roughly 330,000 compounds were called active. Inconclusive means that the source gave no clear call. Such entries were picked first, then a sample of the others. Calls follow the shape of the dose curve; as a rule, active = well fitted inhibition curve with a large enough effect; inconclusive = small, poorly fitted or top-dose-only effect, or effect the other way, or another doubt; inactive = no such curve, though single readings can be large or run the other way. No potency is given beside an inconclusive call; the fits are too rough.
# Biological target: Lysosomal acid glucosylceramidase (Homo sapiens) (UniProt P04062)
# Assay: qHTS Assay for Inhibitors and Activators of N370S glucocerebrosidase as a Potential Chaperone Treatment of Gaucher Disease
# Conditions: N370S GC spleen homogenate, 4MU-glucoside fluorescence; series mostly up to 59.4 µM
# Potency is read from the fitted curve at half-maximal effect.
row,Compound,Potency
1,Cc1ccc(-c2cc(C(=O)Nc3cccnc3)c3ccccc3n2)s1,"inconclusive [activator, partial curve]"
2,CC(C)C(=O)Nc1ccccc1-c1nc2ccccc2[nH]c1=O,"inconclusive [activator, partial curve, poor fit]"
3,COC(=O)C1=C[C@@H](C(=O)OC)C2C3=C(C(=O)[C@@]2(C)NC(=O)c2ccccc2)[C@H](C)n2c(=O)n(C)c(=O)n2[C@@H]3C1 (some centres undefined),inactive
4,O=c1cc(-c2ccccc2)oc2cccc(O)c12,"inconclusive [activator, partial curve]"
5,C=CCn1c(SCC(=O)Nc2ccc3c(c2)OCO3)nnc1-c1ccccc1,"inconclusive [activator, partial curve, poor fit]"
6,CCOC(=O)c1nc(S(C)(=O)=O)ncc1Cl,inactive
7,CN(C(=O)c1cc2n(n1)C(C(F)(F)F)CC(c1ccco1)N2)c1ccc(OC(F)(F)F)cc1 (centres undefined),"inconclusive [inhibitor, partial curve]"
8,CC(C)(CO)Nc1nc(Nc2ccccc2)nc(Nc2ccccc2)n1,"inconclusive [inhibitor, single point]"
9,CCCCCCCCNc1ncnc2ccccc12,"inconclusive [inhibitor, single point]"
10,O=C(CN1CC(=O)Oc2ccccc21)OCC(=O)c1cccc(Br)c1,inactive
11,COc1ccc2c(=O)c3ccccc3oc2c1,inactive
12,COc1cccc2sc3ccc(NCCC4CCCN4C)cc3c(=O)c12 (centres undefined),"inconclusive [inhibitor, single point]"
13,O=C(O)C1Nc2c(O)cc(Cl)c([N+](=O)[O-])c2C2C=CCC12 (centres undefined),inactive
14,COc1ccc(/C=C/C(=O)c2nc3ccccc3n2CC(=O)c2ccc(OC)cc2)cc1,"inconclusive [activator, partial curve]"
15,CCOCCCNC(=O)c1cc2c(=O)n3cccc(C)c3nc2s1,"inconclusive [activator, full curve]"
16,COc1ccc(S(N)(=O)=O)cc1C(=O)N1CCCC1,"inconclusive [activator, partial curve, poor fit]"
17,CCCCN1Cc2c(nc3cc(-c4ccccc4)[nH]n3c2=O)C1=O,"inconclusive [activator, single point]"
18,Cc1cccc(C)c1Nc1nnc(SCC(=O)c2ccc(Br)s2)s1,inactive
19,COc1ccc2c(c1)O[C@@H](c1cccc(C(F)(F)F)c1)[C@H](OC(=O)NCc1ccco1)C2=O,inactive
